Here are results for 53 compounds from PubChem BioAssay AID1346428 (National Center for Advancing Translational Sciences (NCATS), 2018).

The campaign covered roughly 48,000 compounds. About 1,200 (2.5%) were called active. Not shown: some 2% with an inconclusive outcome.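 Rule for the calls: active = activation of at least 60% and not above a set upper limit (about 1 call in 100 departs from these limits); inconclusive = activation of 40% to 60%, or above that upper limit; inactive = activation under 40%.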 The list shows a part of the results.

In this experiment the target is Probable G-protein coupled receptor 32 (Homo sapiens) (UniProt O75388). As to the kind of experiment: qHTS for Agonists of Human Resolvin D1 Receptor DRV1. Note: 0% is about no effect. The following applies: CHO-K1 GPR32 beta-arrestin PathHunter luminescence, 90 min; at 76.9 µM; stronger effect = higher value; zero percent set by DMSO-only wells. In a few lines: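 GPR32 activation in stably transfected CHO-K1 cells, detected as beta-arrestin recruitment by enzyme-fragment complementation. Compound exposure: 90 min, 37 °C.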
UniProt O75388, sequence (O75388 whole entry, looked up, the tested form may be a part): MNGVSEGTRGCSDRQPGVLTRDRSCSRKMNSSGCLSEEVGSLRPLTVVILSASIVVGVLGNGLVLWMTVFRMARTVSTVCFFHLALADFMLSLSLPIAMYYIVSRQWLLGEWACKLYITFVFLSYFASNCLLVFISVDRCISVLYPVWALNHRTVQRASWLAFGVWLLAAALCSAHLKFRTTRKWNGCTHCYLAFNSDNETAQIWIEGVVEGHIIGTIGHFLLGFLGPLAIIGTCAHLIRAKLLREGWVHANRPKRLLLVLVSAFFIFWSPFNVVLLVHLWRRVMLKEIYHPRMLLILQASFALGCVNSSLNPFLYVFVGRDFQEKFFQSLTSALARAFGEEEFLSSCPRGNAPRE
Background: Quantitative high-throughput screening tests each substance at several concentrations.
With `O=c1nc2n(-c3ccccc3F)c3ccccc3cc-2c(=O)[nH]1`, the activation is inactive: -2.79%.

For the compound `O=C(Nc1ccc(OC(F)(F)F)cc1)c1cc2ccccn2n1`, the activation is inactive: 20.8%.

In the case of `Cc1cc(C)cc(NS(=O)(=O)c2cc3c(cc2C)NC(=O)CO3)c1`, the activation is inactive: -0.206%.

For the compound `COc1ccc(Cl)cc1NC(=O)c1sc2nc3n(c(=O)c2c1C)CCC3`, the activation is inactive: 0.778%.

In the case of `COc1ccc(NC(=O)CSc2nnc(-c3nonc3NC(C)=O)n2-c2ccccc2)cc1`, the activation is inactive: -5.24%.

Consider `CCC(=O)N(CCC(c1ccccc1)c1ccc2c(c1)OCO2)Cc1ccc(OC(C)C)cc1` (stereo not drawn), for which the activation is inactive: -14%.

Consider `CCOC(=O)c1c(NC(=O)c2ccc(S(=O)(=O)N(CC(C)C)CC(C)C)cc2)sc2c1CCN(C(=O)OCC)C2`, for which the activation is inactive: -9.35%.

In the case of `CCC(Sc1nc2ccccc2c(=O)n1CCc1ccc(OC)c(OC)c1)C(=O)N(CC)CC` (stereo not drawn), the activation is inactive: -30.3%.

As for `Cc1cc(C)n(-c2nc3ccccc3nc2Nc2cccc(C)c2C)n1`, the activation is inactive: -23.3%.

In the case of `CCOc1ccc(CCNS(=O)(=O)c2cc(Br)cc3c2N(C(C)=O)CC3)cc1OCC`, the activation is inactive: -0.108%.

For `CCCN(C(=O)Cn1cnc2onc(-c3ccc(F)cc3)c2c1=O)c1cccc(Cl)c1`, the activation is inactive: -10.7%.

On to `CCN(CC)C(=O)Cn1c(=O)n(Cc2ccc(C(=O)NCCc3ccc(OC)c(OC)c3)cc2)c(=O)c2ccccc21`, for which the activation is inactive: -8.03%.

In the case of `COC(=O)c1c(NC(=O)CCCOc2cccc(C)c2)sc2c1C(C(=O)OC)CC2` (stereo not drawn), the activation is inactive: -22.5%.

As for `CCc1ccc(CN(Cc2cn[nH]c2-c2ccc(OC)cc2)C(=O)Nc2cc(Cl)ccc2OC)cc1`, the activation is inactive: -20.2%.

For `Cc1ccc(-n2ncc3c(NC4CCCCCC4)ncnc32)cc1Cl`, the activation is inactive: 36.7%.

`CC(=O)c1ccc(N2C(=O)N(CC(=O)c3ccc(F)cc3)c3ccccc3S2(=O)=O)cc1`: the activation was inactive: -15.1%.

As to `Cc1ccc(-n2ncc(C(=O)NCc3ccco3)c2C2CCN(C(=O)OC(C)(C)C)CC2)c(C)c1`, the activation is inactive: -48.7%.

For `CCOC(=O)C1=C(C)N=C2SCCC(=O)N2C1c1ccc(OCc2ccccc2)cc1` (stereo not drawn), the activation was inactive: 18.4%.

On to `COc1ccc(S(=O)(=O)NCCc2csc(-c3ccc(F)cc3)n2)cc1F`, for which the activation was inactive: -15.5%.

As for `Cn1nc(C(=O)Nc2ccc(F)c(Cl)c2)c2c1-c1ccccc1S(=O)(=O)C2`, the activation is inactive: -4.72%.

Turning to `CC(=O)CSc1nnc2[nH]c(=O)cc(N)n12`, the activation is inactive: 14.3%.

In the case of `CCOc1cc2[nH]c(=O)n(Cc3ccc(C(=O)N4CCN(c5cccc(Cl)c5)CC4)cc3)c(=O)c2cc1OCC`, the activation is inactive: 5.6%.

Consider `COc1cc(C2NC(=O)c3c(sc4c3CCN(C)C4)N2)cc(OC)c1OC` (stereo not drawn), for which the activation was inactive: -6.65%.

As for `Cc1cccc(-c2nnc(C3CCN(S(=O)(=O)c4cccc(Cl)c4)CC3)o2)c1`, the activation was inactive: -22%.

Turning to `CCc1ccc(CNC(=O)C2CCN(c3nn4cc(-c5ccc(F)cc5)nc4s3)CC2)cc1`, the activation is inactive: 5.68%.

For `COc1ccc(Br)cc1CN1C(=O)c2ccccc2C1C(=O)NC1CCCCCC1` (stereo not drawn), the activation is inactive: -19.9%.

As to `O=C(Cn1c(=O)nc(-c2ccccc2)c2cc(Cl)ccc21)N1CCN(c2ccc(F)cc2)CC1`, the activation is inactive: -15.5%.

`CCOC(=O)c1c(C)c(-c2ccccc2)n(CC(=O)NC2CCCCC2)c1C`: the activation is inactive: -1.9%.

As to `COc1cc(NC(=O)Cn2cnc(S(=O)(=O)N3CCCC3)c2)cc(OC)c1OC`, the activation was inactive: 1.25%.

`Cc1cccc(CNC(=O)CS(=O)(=O)c2cccc3nsnc23)c1`: the activation was inactive: -6.28%.

With `CCOC(=O)c1c(C)[nH]c(C)c1S(=O)(=O)N1CCCC(C(=O)N2CCN(c3cccc(C)c3C)CC2)C1` (stereo not drawn), the activation is inactive: -5.8%.

Take `COc1ccc(Cl)cc1NC(=O)c1nn(-c2ccc(C)cc2)c(=O)n(C)c1=O`: the activation was inactive: -4.98%.

As to `CCN(C(=O)c1cnc2ccc(C)cn2c1=O)c1ccccc1`, the activation is inactive: 2.74%.

`CCOC(=O)C1CCN(C(c2cccc(F)c2)c2c(O)cc(C)n(CCOC)c2=O)CC1` (stereo not drawn): the activation was inactive: -11.8%.

On to `COCCNC(=O)c1cnc2sc(N3CCC(C)CC3)nn2c1=O`, for which the activation is inactive: 6.35%.

As for `COC(=O)C1=C(C)NC(C)=C(C(=O)OC(C)C)C1c1cccc2nonc12` (stereo not drawn), the activation is inactive: -31.9%.

As to `CCc1ccc(NC(=O)C2CCN(c3nn4c(=O)cc(C)nc4s3)CC2)cc1`, the activation was inactive: -15.9%.

With `O=C1OC(OC(=O)c2cccnc2Nc2cccc(C(F)(F)F)c2)c2ccccc21` (stereo not drawn), the activation is inactive: 21.8%.

Consider `Clc1ccc(-c2noc3ncnc(NCCc4ccccc4)c23)cc1`, for which the activation is inactive: 23.5%.

In the case of `N#C[C@H]1C[C@H]2C[C@@H]2N1C(=O)[C@@H](N)C12CC3CC(CC(O)(C3)C1)C2`, the activation was inactive: -2.72%.

Take `O=C(Nc1ccc2c(c1)CCCN2C(=O)c1cccs1)c1ccccc1Cl`: the activation is inactive: 3.66%.

As to `CC1=C(c2ccc(C)cc2)S(=O)(=O)NC1=NCCCN1CCN(c2ccc(F)cc2)CC1`, the activation was inactive: 22.5%.

Take `Cc1ccc(C)c(OC(=O)CSc2nnc(CNC(=O)c3ccccc3)o2)c1`: the activation is inactive: -7.87%.

In the case of `Cc1ccc(NC(=O)CN2C(=O)CCSc3ccc(S(=O)(=O)N4CCCC4)cc32)cc1C`, the activation is inactive: -12.9%.

Turning to `Cc1ccc(NC(=O)CSc2nc(-c3ccco3)cc(C(F)(F)F)n2)cc1`, the activation was inactive: 25.8%.

On to `CCN(CC)c1ccc(NC(=O)CSc2nc(-c3cccs3)cc(C(F)(F)F)n2)cc1`, for which the activation was inactive: 8.06%.

Turning to `Cc1ccc(NC(=O)Nc2nnc(N(C)Cc3ccccc3)s2)c(C)c1`, the activation is inactive: -16%.

`CC(C)c1ccc(OC(=O)c2cc(-c3ccccc3)on2)cc1`: the activation is inactive: 0.349%.

Take `CCOc1ccc(-n2nc3ccc(NC(=O)COc4ccc(OC)cc4)cc3n2)cc1`: the activation was inactive: 12.6%.

`CCN(CC)c1ccc(NS(=O)(=O)c2cc3[nH]c(=O)c(=O)[nH]c3cc2C)c(C)c1`: the activation is inactive: -22.6%.

Take `Cc1cc2oc(C(=O)Nc3ccc(S(=O)(=O)N4CCCCCC4)cc3)cc(=O)c2cc1C`: the activation was inactive: 2.77%.

Regarding `COc1cc(C)cc2oc(=O)c(CC(=O)NCc3cccc(Cl)c3)c(C)c12`, the activation was inactive: 5.78%.

In the case of `CCc1nc(Oc2cccc(F)c2)c2oc3ccccc3c2n1`, the activation was inactive: -6.47%.
